From PubChem BioAssay AID686979 (National Center for Advancing Translational Sciences (NCATS), 2013)
Hit rate of the full screen: of about 420,000 compounds, about 50,000 (12%) were called active. Inconclusive means that the source gave no clear call. Such entries were picked first, then a sample of the others. The call rests on the fitted dose curve; in most records, active means well fitted inhibition curve with a large enough effect; inconclusive means small, poorly fitted or top-dose-only effect; inactive means flat fitted curve, though single readings scatter. Potencies of inconclusive entries are left out as doubtful fits.

Test: qHTS for Inhibitors of human tyrosyl-DNA phosphodiesterase 1 (TDP1): qHTS in cells in presence of CPT; further: nearly all actives have a fitted effect of over 55% in size
Conditions: chicken DT40 Tdp1-/-;hTDP1 cells + 20 nM CPT, ATP luminescence, 48 h; activity change, negative = growth inhibition: at 46.2 µM (top of the series)
Procedure, shortened: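 Chicken DT40 Tdp1-/- cells complemented with human TDP1, 400 cells/well, exposed to compounds plus 20 nM camptothecin for at least 48 h at 37 C; viability read as ATP content by CellTiter-Glo luminescence.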
On the % scale 0 is the no-effect control and ±100 the full control effect; potency means the concentration at half of the fitted maximal effect; tags describe the fitted curve by direction and shape.

| Compound | Potency | activity change, negative = growth inhibition |
| --- | --- | --- |
| COC(=O)c1ccccc1NC(=O)Cn1cc2c(n1)CCC(C)C2 (centres undefined) | inconclusive [inhibitor, partial curve] |  |
| O=C(Nc1ccncc1)c1cc(C2CCCCN2C(=O)CCc2ccccc2)on1 (centres undefined) | inconclusive [inhibitor, partial curve, poor fit] |  |
| CC(C)(C)n1c(O)c2n(c1=O)Cc1ccccc1N=C2c1ccccc1 | inconclusive [inhibitor, single point] |  |
| COc1cc2cc(CCCOC(=O)CCC(=O)O)oc(=O)c2cc1OC | inactive |  |
| O=C(NCC1Cc2cc(F)cc(-c3cccnc3)c2O1)c1cnn(-c2ccccc2)c1 (centres undefined) | inconclusive [inhibitor, single point] |  |
| CC(=O)c1sccc1NC(=O)c1ccccc1C(=O)O | inactive |  |
| CCC(=O)N1CCc2cc(S(=O)(=O)NC(Cc3ccccc3)C(=O)NCc3cccc(OC)c3)ccc21 (centres undefined) | inconclusive [inhibitor, single point] |  |
| O=c1[nH]c(-[n+]2ccc3ccccc3c2)c(/C=N/N=C(\[O-])c2ccccc2)s1 | inconclusive [inhibitor, full curve, poor fit] |  |
| COc1ccc(-c2cn3nc(N4CCCC(C(=O)NCCCOC(C)C)C4)sc3n2)cc1 (centres undefined) | active: 13 µM |  |
| O=C1NC(=O)C2C1C(c1cccs1)NN2Cc1ccccc1 (centres undefined) | active: 29.1 µM |  |
| CC(=O)Nc1ccc(NC(=O)COC(=O)C2(c3ccc(Cl)cc3)CCCC2)cc1 | inconclusive [inhibitor, single point] |  |
| CCCOc1cc(NCc2ccccc2)c2ncn(C(C)C)c2c1 | inconclusive [inhibitor, single point] |  |
| CCCCCCCCCCCCN1[C@@H](CC(C)=O)c2cc(F)cc(F)c2S1(=O)=O | inconclusive [inhibitor, single point] |  |
| O=C(NC1CCCCC1)c1[nH]c(C(F)(F)F)nc1-c1ccccc1 |  | inconclusive: -32.2% [inhibitor] |
| COc1ccc(C(=O)n2c(-c3ccco3)nc3ccccc32)cc1 | active: 6.51 µM |  |
| C#CCN(C[C@@H]1[C@@H](OC(=O)NCc2ccccc2F)[C@@H](OC(=O)NCc2ccccc2F)Cn2c(=O)ccc(=O)n21)S(=O)(=O)c1ccc(C)cc1 | active: 4.11 µM |  |
| O=C(/C=C/NNC(=O)c1ccccc1)c1ccc(Br)cc1 | active: 3.26 µM |  |
| COc1ccc(CC(=O)c2ccc(O)cc2O)cc1 | inconclusive [inhibitor, single point] |  |
| CSCC[C@H](NC(=O)c1cccc(S(=O)(=O)N2CCCCC2)c1)c1nc2ccccc2[nH]1 | inconclusive [inhibitor, single point] |  |
